# Values joined by “and” are separate entries in the source; they are usually repeats but may differ in a detail not shown here. Equal entries are not always repeated. Inconclusive means that the source gave no clear call. Such entries were picked first, then a sample of the others. For part of these data: Potencies of inconclusive entries are doubtful fits and often do not repeat. The source holds several records for some structures; these can differ, active in one and inactive in another. Active and inactive are the calls of the source. Unless noted, calls come from the whole dose curve; as a rule, active = well fitted curve in the direction sought with a large enough effect in the repeat runs; inconclusive = weak or mixed curves; inactive = no such curve, though single readings can be large; an effect the other way counts as inactive or inconclusive.
# Assays:
# [1] = qHTS RealTime-Glo MT Cell Viability Assay in HEK293 cells - 8 hour (AID 1224887); note: nearly all actives have a fitted effect of over 50% in size; note: potency is the fitted concentration of half-maximal effect
# Summary of the method: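 Real-time viability in HEK293: signal arises when living cells convert a prosubstrate for NanoLuc in the medium, so luminescence tracks viable cell number. Compound (23 nL, DMSO) added 5 h post-seeding; kinetic reads at 0–40 h, 37 C.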
# [2] = qHTS assay to identify small molecule antagonists of the estrogen receptor alpha (ER-alpha) signaling pathway using the BG1 cell line in the presence of 0.1 nM 17-beta-estradiol - cell viability counter screen (AID 1259241); note: nearly all actives have a fitted effect of over 40% in size; note: potency is the fitted concentration of half-maximal effect
# Summary of the method: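 VM7Luc4E2 cells (endogenous ER-alpha, 4×ERE-luciferase), hormone-starved 5 days in charcoal-stripped FBS, were treated with compounds plus 0.1 nM 17beta-estradiol for 22 hr at 37C; viability read in same wells as CellTiter-Fluor live-cell protease fluorescence.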
# [3] = qHTS assay to identify small molecule agonists of the sonic hedgehog signaling (Shh) pathway - cell viability counter screen (AID 1259366); note: potency is the fitted concentration of half-maximal effect; nearly all actives have a fitted effect of over 50% in size
# Summary of the method: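 NIH/3T3-derived 3T3 Gli1-Luc cells (stable Gli1-responsive firefly luciferase reporter) were seeded, rested 4 hr at 37 C/5% CO2, then exposed to compounds in DMSO for 24 hr; viability was read by CellTiter-Fluor fluorescence in the same wells.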
# [4] = qHTS assay to identify small molecule antagonists of the sonic hedgehog signaling (Shh) pathway - cell viability counter screen (AID 1259367); note: potency is the fitted concentration of half-maximal effect; nearly all actives have a fitted effect of over 55% in size
# Summary of the method: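 Conditioned medium drove Shh signaling in 3T3 Gli1-Luc cells exposed to compounds at 37C and 5% CO2. Viability was determined from CellTiter-Fluor fluorescence, with reagent incubated 1 hr after 23 hr of treatment.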
# [5] = A CellTox Green Cytotoxicity Assay to monitor cytotoxicity in HepG2 cells - 8 hour (AID 1224890); note: % is set by controls: 0 for no effect and ±100 for the full control effect; nearly all actives have a fitted effect of over 45% in size
# Summary of the method: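 Cells and non-lytic dye reagent are dispensed together (600 HepG2 cells/well) and incubated 5 h before DMSO compound transfer. Kinetic fluorescence is then recorded in the same wells during 40 h at 37 C.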
# [6] = target: Estrogen receptor (Homo sapiens) (UniProt P03372); experiment: qHTS assay to identify small molecule antagonists of the estrogen receptor alpha (ER-alpha) signaling pathway using the BG1 cell line in the presence of 0.1 nM 17-beta-estradiol (AID 1259244); note: potency is the fitted concentration of half-maximal effect; nearly all actives have a fitted effect of over 50% in size
# UniProt P03372, sequence (P03372 whole entry, looked up): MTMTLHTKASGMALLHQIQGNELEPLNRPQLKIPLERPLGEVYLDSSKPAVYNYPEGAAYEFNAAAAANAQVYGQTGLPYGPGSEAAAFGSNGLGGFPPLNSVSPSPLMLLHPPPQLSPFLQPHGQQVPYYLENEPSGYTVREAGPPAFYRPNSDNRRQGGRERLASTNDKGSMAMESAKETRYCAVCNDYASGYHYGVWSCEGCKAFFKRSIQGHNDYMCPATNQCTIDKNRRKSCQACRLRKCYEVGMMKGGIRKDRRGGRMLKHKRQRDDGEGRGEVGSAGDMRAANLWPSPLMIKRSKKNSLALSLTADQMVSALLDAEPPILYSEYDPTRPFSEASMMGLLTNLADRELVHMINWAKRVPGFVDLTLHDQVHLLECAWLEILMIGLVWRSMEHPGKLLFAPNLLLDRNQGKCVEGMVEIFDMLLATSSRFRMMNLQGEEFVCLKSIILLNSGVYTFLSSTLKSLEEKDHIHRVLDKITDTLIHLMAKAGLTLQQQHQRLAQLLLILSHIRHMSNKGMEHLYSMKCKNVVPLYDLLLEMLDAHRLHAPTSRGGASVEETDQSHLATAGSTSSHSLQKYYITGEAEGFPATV
# Summary of the method: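 Antagonist mode: compounds in DMSO are pinned onto VM7Luc4E2 reporter cells, 0.1 nM final 17beta-estradiol is added, and after 22 h at 37C luciferase luminescence is measured with ONE-Glo.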
# [7] = qHTS assay to identify small molecule antagonists of the sonic hedgehog signaling (Shh) pathway (AID 1259369; calls by dose curve; note: potency is the fitted concentration of half-maximal effect; nearly all actives have a fitted effect of over 45% in size)
# Summary of the method: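 Cells are plated and held 4hr at 37 C, compounds (DMSO) are pinned in, conditioned medium is added to stimulate the pathway, and after 24hr luciferase reagent is added for 30min before luminescence is read.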
# [8] = target: Estrogen receptor beta (Homo sapiens) (UniProt Q92731); experiment: qHTS assay to identify small molecule agonists of the estrogen receptor beta (ER-beta) signaling pathway (AID 1259377; active = well fitted activation curve with a large enough effect in the signal ratio in the repeat runs, not every such curve was filed as active; inconclusive = weak or mixed curves, or effect the other way; the % refers to the signal ratio; note: potency is the fitted concentration of half-maximal effect; for activation: % is set by controls: 0 for no effect and ±100 for the full control effect); settings: ER-beta-UAS-bla HEK293T, beta-lactamase FRET ratio, 16 h; activation: at 92.4 µM (top of the series) unless noted
# UniProt Q92731, sequence (Q92731 whole entry, looked up): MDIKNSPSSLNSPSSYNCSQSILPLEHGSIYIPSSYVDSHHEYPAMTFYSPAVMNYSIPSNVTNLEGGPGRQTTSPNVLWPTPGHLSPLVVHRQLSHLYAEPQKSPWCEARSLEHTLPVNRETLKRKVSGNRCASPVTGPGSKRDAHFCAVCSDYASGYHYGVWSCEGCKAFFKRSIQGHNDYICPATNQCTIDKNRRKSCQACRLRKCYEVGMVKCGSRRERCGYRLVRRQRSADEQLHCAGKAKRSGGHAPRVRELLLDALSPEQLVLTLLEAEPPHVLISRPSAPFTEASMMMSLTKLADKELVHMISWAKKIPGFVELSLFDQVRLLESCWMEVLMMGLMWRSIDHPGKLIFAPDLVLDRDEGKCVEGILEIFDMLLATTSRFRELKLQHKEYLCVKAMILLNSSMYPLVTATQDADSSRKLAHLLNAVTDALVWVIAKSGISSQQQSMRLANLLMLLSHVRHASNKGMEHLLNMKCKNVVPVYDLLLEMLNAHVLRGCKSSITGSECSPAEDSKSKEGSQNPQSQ
# Summary of the method: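 ER-beta-UAS-bla HEK293T (GripTite) cells carrying a UAS-driven beta-lactamase reporter, in medium with 2% charcoal-stripped FBS, were exposed to compounds for 16 hr at 37C; LiveBLAzer B/G FRET substrate was then added and fluorescence read after 2 hours at room temperature.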
# [9] = target: Estrogen receptor beta (Homo sapiens) (UniProt Q92731); experiment: qHTS assay to identify small molecule antagonists of the estrogen receptor beta (ER-beta) signaling pathway (AID 1259378; active = well fitted inhibition curve with a large enough effect in the signal ratio in the repeat runs, not every such curve was filed as active; inconclusive = weak or mixed curves, or effect the other way; inactive = no such curve, though single readings can be large or run the other way; the % refers to the signal ratio; note: potency is the fitted concentration of half-maximal effect; for activity, negative = inhibition: % is set by controls: 0 for no effect and ±100 for the full control effect); settings: ER-beta-UAS-bla HEK293T, beta-lactamase FRET ratio, 16 h; activity, negative = inhibition: at 92.4 µM (top of the series) unless noted
# Summary of the method: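 ER-beta-UAS-bla HEK293T (GripTite) cells in 2% charcoal-stripped FBS medium were preincubated 6 hr at 37C, dosed with compound, then stimulated with 1 nM E2 (final) for 16 hr; beta-lactamase reporter read by B/G FRET fluorescence after 2 hr substrate loading.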
# [10] = A CellTox Green Cytotoxicity Assay to monitor cytotoxicity in HEK293 cells - 16 hour (AID 1224888); note: potency is the fitted concentration of half-maximal effect; nearly all actives have a fitted effect of over 35% in size
# Summary of the method: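 Cells (HEK293, 600/well) and dye reagent are dispensed together. After 5 h at 37 C, 23 nL compound is pinned in. Plates stay at 37 C for 40 h with fluorescence read at 0h, 8h, 16h, 24h, 32h and 40h.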
# [11] = qHTS RealTime-Glo MT Cell Viability Assay in HepG2 cells - 0 hour (AID 1224889); note: potency is the fitted concentration of half-maximal effect; nearly all actives have a fitted effect of over 50% in size
# Summary of the method: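 Cell number in HepG2 cultures estimated from NanoLuc luminescence generated by metabolic reduction of a prosubstrate by living cells. The homogeneous, nonlytic format allowed repeated reads at 0, 8, 16, 24, 32 and 40 h of compound exposure.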
# [12] = qHTS assay to identify small molecule antagonists of the androgen receptor (AR) signaling pathway using the MDA cell line in the presence of 0.5 nM R1881 - cell viability counter screen (AID 1259242); note: potency is the fitted concentration of half-maximal effect; nearly all actives have a fitted effect of over 45% in size
# Summary of the method: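 Steps: plate MDA-kb2 cells, rest 5 hr at 37C without CO2; pin in compounds in DMSO; add R1881 to 0.5 nM final; incubate 16 hr; add CellTiter-Fluor, 30 min; read fluorescence.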
# [13] = qHTS assay to identify small molecule HDAC inhibitors - cell viability counter screen (AID 1259365); note: nearly all actives have a fitted effect of over 50% in size; note: potency is the fitted concentration of half-maximal effect
# Summary of the method: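 Wild-type HCT-116 cells were seeded at 1,500 per well, incubated overnight at 37 C, then exposed to compounds in DMSO for 2hr. Viability was read by CellTiter-Glo luminescence after 30min at room temperature.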
# [14] = target: Androgen receptor (Homo sapiens) (UniProt P10275); experiment: qHTS assay to identify small molecule antagonists of the androgen receptor (AR) signaling pathway using the MDA cell line in the presence of 0.5 nM R1881 (AID 1259243)
# UniProt P10275, sequence (P10275 whole entry, looked up): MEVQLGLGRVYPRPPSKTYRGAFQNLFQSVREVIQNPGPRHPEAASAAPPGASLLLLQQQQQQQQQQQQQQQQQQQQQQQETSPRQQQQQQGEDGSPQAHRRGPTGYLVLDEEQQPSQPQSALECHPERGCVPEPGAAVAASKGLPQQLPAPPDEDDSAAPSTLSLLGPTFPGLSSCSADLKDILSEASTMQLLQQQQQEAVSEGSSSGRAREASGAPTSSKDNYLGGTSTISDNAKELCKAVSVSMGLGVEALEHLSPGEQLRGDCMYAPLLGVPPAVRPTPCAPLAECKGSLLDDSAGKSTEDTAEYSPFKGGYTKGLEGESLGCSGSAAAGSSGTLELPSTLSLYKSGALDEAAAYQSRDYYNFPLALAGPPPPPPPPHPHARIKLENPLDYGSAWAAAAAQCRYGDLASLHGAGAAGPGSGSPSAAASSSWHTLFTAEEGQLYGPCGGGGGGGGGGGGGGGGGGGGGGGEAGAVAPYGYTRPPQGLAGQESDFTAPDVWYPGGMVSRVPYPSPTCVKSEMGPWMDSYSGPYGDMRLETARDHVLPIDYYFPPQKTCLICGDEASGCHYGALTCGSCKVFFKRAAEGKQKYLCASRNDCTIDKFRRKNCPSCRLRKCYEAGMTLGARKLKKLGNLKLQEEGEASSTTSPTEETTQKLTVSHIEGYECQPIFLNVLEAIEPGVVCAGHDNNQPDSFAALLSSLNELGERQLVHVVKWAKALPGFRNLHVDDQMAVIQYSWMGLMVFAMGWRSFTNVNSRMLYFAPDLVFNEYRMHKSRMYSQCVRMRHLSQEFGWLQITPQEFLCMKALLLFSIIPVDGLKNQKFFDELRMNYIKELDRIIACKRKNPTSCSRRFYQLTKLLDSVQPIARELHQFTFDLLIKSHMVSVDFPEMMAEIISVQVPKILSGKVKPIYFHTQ
# Summary of the method: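 Stably transfected MDA-kb2 cells express luciferase from an MMTV promoter bearing both AR and GR response elements. Compounds plus 0.5 nM R1881 (final) were incubated 16 hr at 37C without CO2, then luminescence measured.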
# [15] = qHTS assay to identify small molecule agonists of the androgen receptor (AR) signaling pathway in the presence of an antagonist - cell viability counter screen (AID 1259379); note: potency is the fitted concentration of half-maximal effect; nearly all actives have a fitted effect of over 25% in size
# Summary of the method: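 Cytotoxicity is assessed by CellTiter-Fluor in MDA-kb2 cells carrying an MMTV-driven luciferase reporter. Cells receive 3.0uM nilutamide plus compounds at 15 concentrations and incubate 16 hr at 37C without CO2 before fluorescence reading.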
# [16] = qHTS assay to identify small molecule HDAC inhibitors (AID 1259364);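 note: wild-type HCT-116 cells with endogenous class I/II HDAC activity; potency is the fitted concentration of half-maximal effect; nearly all actives have a fitted effect of over 45% in size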
# Summary of the method: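 Cells (HCT-116, wild type) are seeded at 1,500 per well, incubated overnight, treated with compound in DMSO for 2 hr, then developed with HDAC-Glo I/II reagent for 30 min at room temperature.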
# Tags give direction and shape of the fitted curve or compound fluorescence and quenching.
smiles,measurement,setting,value
CNC(C)Cc1ccc2c(c1)OCO2 (centres undefined),Potency,[1],inactive
same,Potency,[2],inactive
same,Potency,[3],"inconclusive: 75.1 µM [cytotoxic, single point]"
same,Potency,[4],"inconclusive: 84.3 µM [cytotoxic, single point]"
CC(C)N1C(=O)N(c2ccccc2)CSC1=NC(C)(C)C,Potency,[1],"inconclusive: 19.5 µM [cytotoxic, partial curve]"
same,Potency,[5],inactive
same,Potency,[6],inconclusive: 61.1 µM [inhibitor]
same,Potency,[7],"inconclusive: 61.1 µM [inhibitor, single point]"
same,Potency,[8],"inconclusive: 68.6 µM [rising, single point]"
same,Potency,[9],inconclusive: 68.6 µM [single point]
CCc1nn(C)c(C(=O)NCc2ccc(C(C)(C)C)cc2)c1Cl,Potency,[1],active: 4.36 µM
same,Potency,[3],"inconclusive: 61.1 µM [cytotoxic, single point]"
same,Potency,[4],"inconclusive: 0.0344 µM [rising, full curve]"
same,Potency,[8],inactive
same,Potency,[9],active: 24.3 µM
CN(C)S(=O)(=O)N(SC(F)(Cl)Cl)c1ccccc1,Potency,[10],active: 19.5 µM
same,Potency,[11],"inconclusive: 7.76 µM [cytotoxic, partial curve, poor fit]"
same,Potency,[2],"inconclusive: 61.1 µM [cytotoxic, partial curve]"
same,Potency,[12],"inconclusive: 27.3 µM [cytotoxic, partial curve]"
same,Potency,[13],"inconclusive: 77 µM [cytotoxic, partial curve, poor fit]"
same,Potency,[7],active: 2.17 µM
CC(C)(C)OO,Potency,[1],inactive
same,activation,[8],inconclusive: 7.92%
BrCC(Br)(Br)Br,Potency,[1],active: 16.1 µM
same,Potency,[2],inactive
same,Potency,[14],"inconclusive: 63.4 µM [inhibitor, partial curve, poor fit]"
same,Potency,[15],"inconclusive: 63.4 µM [cytotoxic, partial curve]"
O=C(O)C(F)(F)C(F)(F)C(F)(F)C(F)(F)C(F)(F)C(F)(F)C(F)(F)F,Potency,[1],inactive
same,Potency,[13],inactive
same,Potency,[8],"inconclusive: 30.5 µM [rising, partial curve]"
same,Potency,[9],"inconclusive: 54.3 µM [rising, partial curve, poor fit]"
same,"activity, negative = inhibition",[9],inconclusive: -43.3%
CC(C)[C@@H](Nc1ccc(C(F)(F)F)cc1Cl)C(=O)OC(C#N)c1cccc(Oc2ccccc2)c1 (some centres undefined),Potency,[1],"inconclusive: 42 µM [cytotoxic, partial curve]"
same,"activity, negative = inhibition",[9],inconclusive: -2.53%
CC(=O)O[C@H]1CC[C@@]2(C)C(=CC[C@@H]3[C@@H]2CC[C@]2(C)C(=O)CC[C@@H]32)C1,Potency,[1],"inconclusive: 49 µM [cytotoxic, single point]"
same,Potency,[7],"inconclusive: 19.3 µM [inhibitor, partial curve]"
same,Potency,[8],active: 1.72 µM
same,"activity, negative = inhibition",[9],inconclusive: -30.4%
CN(C)C(=S)S,Potency,[1],"inconclusive: 9.7 µM [cytotoxic, full curve] and inconclusive: 15.5 µM [cytotoxic, full curve]"
same,Potency,[2],"inconclusive: 27.9 µM [cytotoxic, partial curve] and inconclusive: 1.36 µM [cytotoxic, full curve]"
same,Potency,[12],"inconclusive: 8.81 µM [cytotoxic, full curve] and inconclusive: 1.92 µM [cytotoxic, full curve] and inconclusive: 13.7 µM [cytotoxic, full curve]"
same,Potency,[16],"inconclusive: 54.5 µM [inhibitor, partial curve, poor fit]"
same,Potency,[15],"inconclusive: 7.85 µM [cytotoxic, full curve] and inconclusive: 857 nM [cytotoxic, full curve]"
O=C1c2ccccc2C(=O)C1C(=O)C(c1ccccc1)c1ccc(Cl)cc1 (centres undefined),Potency,[10],"inconclusive: 43.6 µM [activator, partial curve]"
same,Potency,[11],"inconclusive: 21.9 µM [cytotoxic, partial curve, poor fit]"
same,Potency,[2],"inconclusive: 38.6 µM [cytotoxic, partial curve, poor fit]"
same,Potency,[6],active: 27.3 µM
same,Potency,[13],"inconclusive: 61.1 µM [cytotoxic, single point]"
O=[N+]([O-])c1ccc(F)c([N+](=O)[O-])c1,Potency,[1],"inconclusive: 27.8 µM [cytotoxic, partial curve]"
same,Potency,[2],active: 17.4 µM
same,Potency,[12],active: 30.9 µM
same,Potency,[4],"inconclusive: 69.2 µM [cytotoxic, single point]"
same,Potency,[7],"inconclusive: 69.2 µM [inhibitor, partial curve, poor fit]"
same,"activity, negative = inhibition",[9],inconclusive: -3.95%

# From PubChem BioAssay (Tox21)
